Experimental data published in ChEMBL document CHEMBL4888484, “Replenishing the malaria drug discovery pipeline: Screening and hit evaluation of the MMV Hit Generation Library 1 (HGL1) against asexual blood stage Plasmodium falciparum ,using a nano luciferase reporter read-out” (2022).
About 540 (0.36%) of roughly 150,000 compounds showed an effect of 50% or more. The list shows a part of the results.

Tested on: Plasmodium falciparum
Assay: Primary screen in NF54 nanoGlo assay, in single point, at 2uM, 72h; a lower Z score goes with more inhibition
Type: functional, Erythrocyte
Details: timepoint 72 hour

SMILES | % Inhibition [%] | Z score
Cc1noc(C)c1S(=O)(=O)N1CCc2[nH]c3ccccc3c2C1 | -15 | 2.78
Cc1ccnc(NC(=O)CNC(=O)C2CCCCC2)c1 | -1 | 0.13
CC1CCC2=NN(c3nc4ccccc4s3)C(O)(C(F)(F)F)C2C1 (configuration not stated) | -3 | 0.45
O=C(CCC(=O)Nc1cccnc1)Nc1cccnc1 | -1 | 0.07
CCc1nnc(Cn2cnc3ccccc3c2=O)o1 | -2 | 0.22
CCOc1ccc(S(=O)(=O)N2CCC3(CC2)CN(C)C[C@@H]3COC)cc1 | 2 | -0.21
CC[C@H]1CN(S(=O)(=O)c2ccccc2)CC[C@H]1CC(=O)N(C)CCC#N | -8 | 1.23
CC(C)CC(C)(C)CNS(=O)(=O)Cc1ccon1 | -12 | 1.65
Cc1ccc(N(C)c2nc(-c3ccc(F)cc3)ncc2C(=O)N(C)C2CCCCC2)cc1 | -26 | 2.75
CCCC(=O)NCCn1nc(-c2ccc(F)cc2)n(C2CC2)c1=O | -7 | 1.35
CC1(C)CC1(NC(=O)NC1CC2CCCCN2C1=O)c1ccccc1 (configuration not stated) | 15 | -1.85
CC1(C)[C@@H](O)[C@H]2CCCN(C(=O)c3cc(C(F)F)ncn3)[C@H]21 | -5 | 0.54
CCOc1cc(N2CC[C@H](C(N)=O)C2)ncn1 | -1 | 0.08
Cc1ccc(OCc2ccc(C(=O)N(CCC#N)CC3CCC3)o2)c(C)c1 | 5 | -0.49
COc1ccc([C@H]2C[C@H](NC(=O)NCc3cccnc3C)C2)cc1F | -12 | 1.22
CCc1nnc(CN(CC)C(=O)c2cc(CC(C)C)no2)o1 | -7 | 1.02
CC(=O)Oc1c(C)cc(CNCc2cnc(C)cn2)cc1C | 11 | -1.62
O=C1CCC(CCC(=O)N2CCCC2c2nc3cc(F)ccc3[nH]2)(Cc2ccc3c(c2)OCO3)N1 (configuration not stated) | 2 | -0.25
CCc1cc(OC)ccc1CN(C)Cc1nncn1C | -14 | 1.77
C[C@@H](Cc1cccs1)NC(=O)CCS(C)(=O)=O | -8 | 0.98
CN(C(=O)C1CC1c1ccccc1)C1(c2ccccc2)CCCCC1=O (configuration not stated) | -5 | 0.71
CCCCN1C(=O)CC[C@@H]2CN(c3nnnn3-c3ccccc3)CC[C@@H]21 | 0 | 0.04

SMILES | % Inhibition [%] | Z score
Cc1nnc2n1CCN([C@@H](C)C(=O)Nc1ccc(Cl)cn1)C2 | -7 | 1.08
O=S(=O)(Cc1ccon1)NCc1cccs1 | -12 | 1.16
COCCOCCC(=O)N1CC=C(c2cccc3ccccc23)CC1 | -12 | 1.18
O=C(NCCc1ccc(O)cc1)N1CCN(S(=O)(=O)N2CCOCC2)CC1 | -3 | 0.5
O=C(O)c1cc(C2CC2)n2nc(-c3cccc(F)c3)cc2n1 | 0 | -0.05
CCOCCC(=O)Oc1c(C)cc(C#N)cc1C | -6 | 1.06
Cc1noc(C)c1COC(=O)c1cc(C2CC2)nc2ccccc12 | 0 | -0.05
Cc1ccc(CN2CCN(C(=O)CCc3n[nH]c(C)c3C)CC2=O)cc1C | -3 | 0.44
CNC(=O)[C@@H]1C[C@@H](Nc2ccnc(OC)c2C#N)CN1Cc1ccccn1 | 2 | -0.32
Cn1ccnc1C(N[C@H]1CCCN(C(=O)OC(C)(C)C)C1)C1CC1 (some centres not stated) | -11 | 1.18
CCCc1nnc(N[C@H]2CC(=O)N(C3CC3)C2)s1 | -16 | 1.57
Cc1cccc(C2CC(C(=O)N(C)Cc3ccco3)CN(Cc3ccccc3)C2)c1 (configuration not stated) | -12 | 1.4
O=C1N(Cc2ccc(F)c(F)c2)CCC[C@@]1(O)CN1CCC2(CC1)OCCO2 | -8 | 1.02
Cc1ccc(C(=O)NCc2cncn2C2CC2)n1C(F)F | -5 | 0.73
COc1nscc1CN(C)c1ncnc2[nH]ncc12 | -8 | 1.54
Cc1nc(CCN)cc(N(C)C[C@H]2Cc3ccccc3O2)n1 | -8 | 1.11
COc1ccc(CN[C@@H](C)CN2CCCC2=O)cc1OCc1cccnc1 | -16 | 2.48
COc1cc(C(=O)NC(C(C)C)C(C)C)cc(OC)c1OC | 4 | -0.75
Cn1nc(CN2CCC[C@H](Oc3ccc(Cl)c(Cl)c3)C2)[nH]c1=O | 5 | -0.6
CC(C)N1CCC[C@H](n2cnc3c2c(=O)n(C)c(=O)n3C)C1=O | 13 | -1.47
CCCS(=O)(=O)c1ccc(Cl)cc1N | -15 | 2.18
C[C@@H]1CN(C(=O)c2ccoc2C(F)(F)F)C[C@H](C)N1CCO | 23 | -2.94

SMILES | % Inhibition [%] | Z score
O=c1cccc(-c2noc([C@@H]3CCCN3Cc3ccccc3)n2)[nH]1 | 9 | -1.76
Cc1ccc2nc(-c3ccc(C)c(NC(=O)c4ccc(-c5cccc(Cl)c5)o4)c3)oc2c1 | 30 | -3.41
CCOC(=O)N(C)OC(=O)Nc1ccc(Cl)c(Cl)c1 | -11 | 2.09
CC1CCCC(C)N(C(=O)c2ccc(S(N)(=O)=O)c(F)c2)C1 (configuration not stated) | 1 | -0.15
c1ncn(C[C@H]2CCCCN2CC2CCCC2)n1 | -8 | 1.06
Cc1cc(C)cc(-n2nc(-c3ccccc3)nc2[C@H]2CC(=O)N(C)C2)c1 | -14 | 1.95
CCC1(O)CCN(C(=O)c2ccc3nccc(C)c3c2)CC1 | 0 | -0.06
O=C(c1cn(-c2ccccc2)nc1-c1ccc2c(c1)OCCO2)n1nnc2ccccc21 | -8 | 1.01
CCOc1ccccc1NC(=O)Cn1nc(C(=O)N2CCOCC2)cc1C1CC1 | -10 | 1.94
CCCn1nnnc1CNc1cccc(S(C)(=O)=O)c1 | -15 | 1.26
CN1CCC[C@@H]1CN(C)S(=O)(=O)C1(C)CC1 | -8 | 0.74
Cn1cc(NC(=O)c2cnn(CCC(F)(F)F)c2)cn1 | 12 | -1.67
CCOc1ccnc(NCC[C@H]2CCCCN2C)n1 | -10 | 1.07
O=C1N(C2CCOCC2)C[C@H]2CN(Cc3cccc(OC(F)(F)F)c3)CCN12 | 15 | -1.72
N#Cc1cc(-c2cccc(C(=O)NCC(=O)N3CCCC3)c2)ccc1F | -9 | 1.5
CC1(C)OCCC1CNC(=O)N[C@H]1CC[C@@H](C(=O)N2CCCCC2)C1 (some centres not stated) | -4 | 0.57
Cc1ccc(N2N=C(C(=O)N3CCN(S(=O)(=O)c4ccc(F)cc4F)CC3)NCC2=O)cc1 | 27 | -3.32
Cc1ccccc1CC1(NC(=O)c2ccccc2-c2nnn[nH]2)CC1 | -4 | 0.41
c1ccc(CC2CCN(c3nc4ccccc4c4nncn34)CC2)cc1 | -5 | 0.46
CCN(CCO)C(=O)c1ccc(-c2ccc(-c3nccn3C)nn2)cc1 | -8 | 1.49
OC1CC(c2cc(N3CCC(OCc4cccnc4)CC3)ncn2)C1 (configuration not stated) | -13 | 1.23
COCCN(CCC#N)c1ncnc2c1ncn2CC1(O)CCOC1C (configuration not stated) | 3 | -0.39

SMILES | % Inhibition [%] | Z score
Cc1nc2ccc(NC(=O)c3ccncc3)cc2[nH]1 | -12 | 1.51
Cn1c(-c2ccccc2)nnc1N1CC[C@H](Oc2cccc(F)c2)C1 | -13 | 2.09
CC(C)Cc1noc([C@H]2CCCN(c3ncnc4c3CCNCC4)C2)n1 | -13 | 2.54
Cn1c(=O)n(C)c2cc(N3CCCC3)c(N)cc21 | -16 | 1.44
Cc1ccc(OCCS(=O)(=O)NC[C@H]2CNCCO2)cc1 | -10 | 0.94
COC1([C@H](C)NC(=O)C2CC(=O)C2)CCC1 | 6 | -0.77
COc1cc2c(cc1CN1CCN[C@H](C(=O)N3CCCC3)C1)OCCCO2 | -6 | 1.07
Cc1cc(CN(C)CCc2ccncc2)c(C)o1 | -11 | 1.75
c1cc(N=C(NC2CCCCC2)NC2CCCCC2)ccc1N=C(NC1CCCCC1)NC1CCCCC1 | 3 | -0.35
CNC(=O)c1cc(Br)ccc1NCC[C@H]1CCCO1 | 0 | 0.03
O=C(CCc1cc(Cl)cs1)NC[C@H]1CS(=O)(=O)CCO1 | -5 | 0.76
O=C(O)C1C2CCCC2CN1S(=O)(=O)c1ccc(F)c(Cl)c1 (configuration not stated) | -8 | 1.22
CCC(C)CS(=O)(=O)NC(=O)C1CC1C (configuration not stated) | 2 | -0.26
Cc1cccc(NC(=O)N2C[C@H](CO)[C@@H](C(F)(F)F)C2)c1F | -6 | 1.18
COc1ccccc1CNC(=O)Cn1c(=O)ccc2cc(S(=O)(=O)N3CCC(C)CC3)ccc21 | -8 | 1.05
CCc1ccc2ncn([C@@H](CC)Cn3ccnc3)c(=O)c2c1 | -9 | 0.99
CCOC[C@@H](O)CN(Cc1c(C(C)C)nn(-c2ccccc2)c1Oc1cccc(F)c1)CC1CC1 | -13 | 1.67
Nc1nc([C@H]2CCCN(CCCc3c(F)cccc3F)C2)n[nH]1 | -7 | 1.41
COC1CCCC(CC(=O)N(Cc2ccco2)c2ccccn2)C1 (configuration not stated) | 3 | -0.52
COCc1cn(C2CCN(c3ncccc3C(N)=O)CC2)nn1 | -13 | 1.35
